# In all, about 310,000 compounds went through this assay and about 2,200 (0.71%) showed an effect of 50% or more. Effects have a minus sign here. This is one part of the list.
# Molecular target: human ether-à-go-go-related gene (hERG) potassium channel (human, UniProt Q12809)
# Experiment: primary screen, population patch clamp on CHO cells stably expressing hERG
# human ether-à-go-go-related gene (hERG) potassium channel, sequence (Q12809 whole entry, looked up): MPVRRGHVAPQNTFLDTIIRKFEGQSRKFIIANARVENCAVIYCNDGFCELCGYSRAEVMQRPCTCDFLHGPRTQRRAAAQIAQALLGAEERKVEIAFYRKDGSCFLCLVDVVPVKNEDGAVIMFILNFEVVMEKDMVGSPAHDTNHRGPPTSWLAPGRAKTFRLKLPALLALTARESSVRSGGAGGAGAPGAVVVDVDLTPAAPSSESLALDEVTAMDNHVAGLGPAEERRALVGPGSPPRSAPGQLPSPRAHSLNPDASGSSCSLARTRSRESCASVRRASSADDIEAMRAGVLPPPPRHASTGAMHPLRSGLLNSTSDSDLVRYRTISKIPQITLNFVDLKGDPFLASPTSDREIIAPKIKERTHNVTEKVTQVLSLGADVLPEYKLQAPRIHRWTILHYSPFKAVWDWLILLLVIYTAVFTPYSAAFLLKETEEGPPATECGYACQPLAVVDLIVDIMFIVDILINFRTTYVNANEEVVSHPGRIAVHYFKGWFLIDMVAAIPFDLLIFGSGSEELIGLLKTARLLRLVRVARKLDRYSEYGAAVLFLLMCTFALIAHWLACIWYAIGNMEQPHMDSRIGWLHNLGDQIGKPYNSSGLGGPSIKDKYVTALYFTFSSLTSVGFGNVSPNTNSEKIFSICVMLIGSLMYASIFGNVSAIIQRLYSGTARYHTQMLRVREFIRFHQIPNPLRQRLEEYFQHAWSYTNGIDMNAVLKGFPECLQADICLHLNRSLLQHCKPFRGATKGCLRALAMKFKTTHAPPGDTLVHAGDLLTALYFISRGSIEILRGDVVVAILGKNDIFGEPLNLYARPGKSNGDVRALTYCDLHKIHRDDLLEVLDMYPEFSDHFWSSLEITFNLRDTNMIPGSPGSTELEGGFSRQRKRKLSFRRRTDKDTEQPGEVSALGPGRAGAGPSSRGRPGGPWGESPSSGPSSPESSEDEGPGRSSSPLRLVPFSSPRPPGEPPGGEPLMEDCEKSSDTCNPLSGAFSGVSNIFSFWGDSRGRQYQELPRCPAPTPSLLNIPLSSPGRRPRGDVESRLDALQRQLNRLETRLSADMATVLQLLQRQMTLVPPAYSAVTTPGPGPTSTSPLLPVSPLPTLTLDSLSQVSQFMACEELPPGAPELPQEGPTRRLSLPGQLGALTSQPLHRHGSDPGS
row,Compound,"hERG current change (%, negative = inhibition) at 1uM [%]"
1,O=C(CCc1c[nH]c2ccccc12)Nc1ccc(S(=O)(=O)Nc2ncccn2)cc1,5.97
2,COc1ccc(C2=NS(=O)(=O)N(C)C(C(=O)NC3CCCCC3)=C2)cc1OC,-6.46
3,O=C(COc1ccc(Cl)cc1Cl)NC(=O)N1CCCCC1,3.66
4,COc1ccc(C(=S)Nc2ccc(N(C)C)cc2)cc1,12.9
5,CCOC(=O)N1CCC(=NNC(=O)COc2cccc(C)c2)CC1,13.5
6,COc1ccc(CCNC(=O)c2cc3c(=O)n(C)c4ccccc4c3n2C)c(OC)c1,5.04
7,CC(Oc1ccc(Br)cc1Cl)C(=O)Nc1ccncc1 (centres unmarked),8.85
8,COCC(=O)Nc1c(C(=O)Nc2cccc(OC)c2)oc2ccccc12,15.8
9,CSc1ccc(CN(C)CC(=O)Nc2ccc(NC(C)=O)cc2)cc1,7.1
10,Cc1[nH]c(C)c(S(=O)(=O)N2CCc3ccccc32)c1C(=O)N1CCCCC1,12.9
11,O=C(OCc1nc2ccccc2s1)c1cc2ccccc2oc1=O,9.38
12,O=[N+]([O-])c1cc2c(c(CSc3ncccn3)c1)OCOC2,13.8
13,CCCn1c(N)c(C(=O)CN(C)CC(=O)Nc2ccccc2CC)c(=O)[nH]c1=O,-3.45
14,COCCn1c(-c2ccc(F)cc2)nc2oc3cc(OC)ccc3c(=O)c2c1=O,1.51
15,COc1ccc(CC(=O)Nc2ccc(C#N)c(Cl)c2)cc1S(=O)(=O)N1CCOCC1,-18.2
16,Cc1nnc(NC(=O)c2ccc(-c3ccc([N+](=O)[O-])cc3)o2)s1,-8.48
17,Cc1ccc(-n2c(SCC(N)=O)nnc2-c2ccc(S(=O)(=O)N3CCCCC3)cc2)c(C)c1,-9.7
18,CCOC(=O)CCCNC(=O)CN1C(=O)NC(c2ccccc2)(c2ccccc2)C1=O,-0.493
19,O=C1C(C=NC2CC2)=C(O)c2ccccc21,15.9
20,Cc1cc(C)n(-c2c(F)c(F)c(CN3CCCCC3)c(F)c2F)n1,8.13
21,CCn1c(-c2ccc(Cl)cc2)n[nH]c1=S,5.68
22,CCOP(=O)(OCC)/C(C#N)=C(\O)c1ccc(OC)cc1,9.87

row,Compound,"hERG current change (%, negative = inhibition) at 1uM [%]"
1,O=C(O)CCC(=O)Nc1ccccc1C(=O)NCCc1ccccc1,16.3
2,CCS(=O)(=O)c1ccc2oc(SCC(=O)NCCc3ccccc3)nc2c1,5.84
3,C/C(=C\c1ccc(C)o1)C(=O)c1c(C)cc(C)[nH]c1=O,10.6
4,CCOc1ccc(N=Nc2c(C)noc2C)cc1,11.9
5,O=C(COc1ncnc2ccccc12)c1ccc2c(c1)OCCO2,13.1
6,CCC(=O)c1ccc(OCC(=O)Nc2ccccc2C(=O)N2CCCCC2)cc1,13.8
7,Cc1noc(C)c1C(=O)OCC(=O)Nc1ccc(S(N)(=O)=O)cc1,8.34
8,Cc1ccc(CCNC(=O)C2CCCN(S(=O)(=O)N3CC(C)CC(C)C3)C2)cc1 (centres unmarked),16.3
9,Nn1c(SCC(=O)Nc2ccc3c(c2)OCCO3)nnc1C(F)(F)F,7.53
10,O=C(CSc1nnc(Cn2c(=O)sc3ccccc32)n1-c1ccccc1)N1CCCCCC1,2.64
11,CCOc1ccc(C(=O)OCCCN(C)C)cc1,1.98
12,CSCC[C@H](NC(=O)COc1ccc(Cl)cc1Cl)c1nc2ccccc2[nH]1,8.49
13,COc1ccc(N(CC(=O)Nc2ccc(S(=O)(=O)N3CCOCC3)cc2)S(=O)(=O)c2ccc(F)cc2)cc1,7.3
14,O=S(=O)(c1ccc(NCC2CCCCC2)nc1)N1CCOCC1,4.04
15,Cc1ccc(NC(=O)CNC2CCCCC2)cc1Cl,9.31
16,CC1(C)OC(=O)C(=NNc2ccc(O)cc2)C(=O)O1,9.56
17,Cc1nc(NC(=O)COC(=O)CCc2nc3ccccc3s2)c(Cl)cc1Cl,21.7
18,CC(C)OC(=O)CSc1nnc(-c2cnccn2)n1C,6.35
19,CCOc1ccc2c(c1)c(N=NC(=N)N)c(O)n2C,18.4
20,Cc1ccc(NC2=C/C(=N\S(=O)(=O)c3cccs3)c3ccccc3C2=O)c(C)c1,8.24
21,O=C(CNC(=S)N(Cc1ccccc1Cl)C1CCCC1)NCCN1CCOCC1,0.96
22,O=C1CC(SC(=Nc2ccccc2)Nc2ccccc2)C(=O)N1c1cccc(Cl)c1 (centres unmarked),-3.44

# Reference: paper PMC4336329 (PLoS ONE, 2015)
